This is one part of the list.
Each sequence was assayed on PfSIP2 AP2 domain 1 (GST-tagged) (assay: gcPBM binding intensity (ln(normalized median fluorescence intensity)); higher = stronger DNA binding).
Method in brief: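 GST-tagged P. falciparum DNA-binding domains produced in E. coli were incubated for 1 h on an Agilent 4 × 180k array of primer-extended double-stranded 36-bp intergenic genomic probes with negative controls. Binding intensity is the highest Masliner-normalised natural-log median intensity across replicate spots of either probe orientation, with bound protein detected by Alexa488 anti-GST antibody at 488 nm.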

Point of comparison: “TTAATATATTATATTTGTACATATATATATATACAA [XGTACX_site4798]”, “gcPBM binding intensity (ln)” value 6.99. Against it:
- AAAATATATATAAATGCATGCATAATGAAATATATA [TGCATGCA_site39] — lower, 6.96
- TTTTAAAAAACAAACACACACGTAGAAAAAAAAAAA [CACACA_site4608] — the same, 6.99
- GAAATTTTATTTCGGCGGACAAATGTATACTTTCTT [XGTACX_site4238] — lower, 6.77
- GAGAAGACATTACACAGTACCCAGTAACTCTACGGA [XGTACX_site2000] — lower, 6.66
- GATTATTATGTCCATGCATGTTAATATATATTAATT [TGCATGCA_site837] — higher, 7.15
- AAATTGGGGCTTGTTACACACTTAGTGCGAGTTCTA [CACACA_site582] — higher, 7.03
- ACACATATGACAAATAGTACATAAATATATAAATAT [XGTACX_site7141] — higher, 7.04
- AATATTCACATTTGTTGTACATTCCTAGTTATATAA [XGTACX_site491] — higher, 7.2
- TAAATATATAATTGTAGTACTGTTTTATGTTCATAA [XGTACX_site1020] — lower, 6.85
- AAAAAATTTCAAATAACACACACTAATATATATATG [CACACA_site1426] — lower, 6.89
- TAAACAGATATATTTTGTACATATTGTATATTTTGT [XGTACX_site713] — higher, 7.03
- AAGGAAAATTTTTGGTGTACACAAAAAAATCCAAAA [XGTACX_site3596] — higher, 7.05
- ACAAAAAAGTAAAAAGTGCATGTAAAATATAAGTAT [GTGCAC_site9438] — higher, 8.78
- AAATTGTGTTCATCAGCACACACAACATCATGTAAT [CACACA_site8556] — lower, 6.82
- AATAAATCTTTTTGTTGTACTAAAAATATTATTAGC [XGTACX_site3335] — lower, 6.91
- CGAAAGAAAAAAAGCACACACAGTTTTGAGCAATGA [CACACA_site2109] — lower, 6.8
- CTTATTTCCTTTTGTAGTACCTTATAATATATATAA [XGTACX_site8873] — higher, 7.51
- TAATAATAGTACTCACATCAAAGTATTATTAAAAAT [TGCATGCA_negctrl_site496] — higher, 7.04
- TTCTATTTGTAAAATTGTACAAAATAAATAACAAAA [XGTACX_site1007] — higher, 7.04
- GCATTTCTACTAAAAATACACACGATGATACAACGA [CACACA_site1756] — higher, 7.12
- TTATATATTTTTTGCACACCAAAAAAGAGAATATTC [CACACA_site2730] — higher, 7.35
- GGGAAGTAGTAGTAATGTACTTATTTATTATGTGAC [XGTACX_site3985] — higher, 7.35
- TATAAATATAAATACACACACATATATATTATATAT [CACACA_site4496] — higher, 7.07
- TATATATATATATGTTGTACATATTTAAATGTTTAT [XGTACX_site5437] — higher, 9.84
- ATATATATATATATGTGTACATAATAACTTTGCTTA [XGTACX_site1255] — higher, 9.45
- ACCTATTTCAAACACACACACACACTAGCAAACATA [CACACA_site4695] — higher, 7.67
- TAAAAAATGTTATATACACACAGTATAAAAAAAAAT [CACACA_site7808] — lower, 6.9
- AATTAAATTATAAGCACACACATATATATATATATA [CACACA_site3351] — higher, 9.36
- CCACGTATAATATGTACACACACATAAATACAAAAA [CACACA_site4660] — higher, 7.61
- ATCTGTCGACAGGACAGTACACAGTAGCCAGGAAAT [XGTACX_site1994] — higher, 7.05
- TATATATATATATATATATATATGTATGTGCATTTA [TGCATGCA_negctrl_site53] — higher, 9.08
- ATATAAAAATGTAAGGGTACATAATAAATAATCAAA [XGTACX_site5217] — higher, 7.07
- ATTTAGAAAAATAAAACACACATATATATGTAAATA [CACACA_site4113] — lower, 6.85
- GGAAAAAATATATGCACACCCCCCAAAAAAAAAAAA [CACACA_site2222] — higher, 9.73
- AAAAAATATTAATATAGTACTTTATATTTATAAGTA [XGTACX_site6895] — lower, 6.89
- TTTTTGTTATTTTTAGTGCACATTTAAGGGTGTATT — higher, 10.4
- GAAGGAAAAACAGAATGTACATAAATAAACGTATAT [XGTACX_site753] — higher, 7.17
- ACAAAATTTACAAAATGTACAAAATTTACAAAATGT [XGTACX_site6464] — lower, 6.84
- TATATCTTACTTTTTGCACACACTAATATTATTGTT [CACACA_site1640] — higher, 7.42
- AATACGGCAAACATTAAAAAATATAATAACAATAAA [CACACA_negctrl_site868] — lower, 6.96
- TAAGGATGAATCCTTTGTACATATATATATATATAT [XGTACX_site1242] — higher, 9.76
- TTTTTTTAAATATACACACACATTTATACATATATA [CACACA_site3400] — higher, 7.16
- GTTATACATTTTGATTGTACATAAACCATTTGAGCA [XGTACX_site7283] — higher, 7.07
- TGAAAAGAAAACACATGTACAAATATATAAATATAA [XGTACX_site6098] — lower, 6.76
- TATAAACATATCATATGTACATATATTTTTATAAAA [XGTACX_site8882] — lower, 6.98
- ATATATTTTTGTAGTGTGCACGTTTATATGGTGAAA — higher, 10.3
- TTTAACGTTGAATATACACACATATATATATATATA [CACACA_site3698] — higher, 9.45
- AAGAAAAAATAAAAAATAAAAATAAAAAATAAAAAA [TGCATGCA_negctrl_site274] — lower, 6.66
- ATATATTTACATATTACACACAATATTGTACACATA [CACACA_site6564] — higher, 7.06
- TTAGAGAAACAAAATTGTACATTATAAATTTGCCTT [XGTACX_site440] — lower, 6.76
- CAAGAAATTTACAAACGTACATATGTTCATACAAGG [XGTACX_site2372] — lower, 6.96
- TATTTGAAAGCCAATTGTACTTTAGTTTTTGAAACA [XGTACX_site5542] — lower, 6.96
- CTATTTCAGAAACACACACACACAAACAAACATATA [CACACA_site978] — higher, 7.17
- TTTCTTTTTAAATAGGTGCATATTTTTATAAATATA — higher, 11
- TTAAATATAATATTATGTACTAAATATTTTTTTATT [XGTACX_site6121] — lower, 6.87
- TTTATATATATTCTCACACACTTTTTATTTTAACAA [CACACA_site4534] — higher, 7.05
- ATAAATTTCCTCGTTTTTTTTTTTTTTTTTTTTTTT [CACACA_negctrl_site1173] — higher, 8.43
- AAAAATATTTATAACACACACATAATATTTATATAT [CACACA_site7238] — higher, 7.09
- AGATGATATACGTAAACACACAAATAAAAAAAATTT [CACACA_site3327] — higher, 7.06
- ACAAAAAAATAAGGTGCACACAAAAAAAAAAAAAAA [CACACA_site8171] — higher, 12
- GAGTTCAGTTTTTGTTGTACTTATTCTTAATATGTC [XGTACX_site6083] — higher, 7.15
- TTTTTTTTTTTTTGATGTACTTATTTAATAAGATAT [XGTACX_site376] — lower, 6.9
- TATATGGCATATTTCACACACACATAATGAATATTA [CACACA_site9181] — lower, 6.97
- ATATAGCATATAATTTGTACACAGGCCATACCTGAA [XGTACX_site533] — lower, 6.85
- ATCCAAAAAATTAATGCATGCGCAAAAAATAGCTTA [TGCATGCA_site615] — lower, 6.67
- AAAAAAAAAACATACACACACATATATATATATATG [CACACA_site1586] — higher, 7.65
- TGTCCTTATTTGCACACACACATATAAGAAATTTAA [CACACA_site7485] — higher, 8.18
- TTTGTTTTATCTTATATGCACACGATAAAAAAAAAA [CACACA_site2673] — higher, 8.43
- ATTATATGTAACACGTGTACCTATTTATGTATGCTT [XGTACX_site5748] — higher, 7.16
- AATATACAAAATATCACACATATAAAATAATATATA [CACACA_site6067] — lower, 6.96
- GATATATAAACATATACACACAAAAACATATTTATA [CACACA_site6734] — lower, 6.98
- TGATAATTTCATTTTGCATGTGACAATACAAGATGT [TGCATGCA_site203] — lower, 6.93
- AATGGTTCAACGTAGTGTACGTAATAAATAATAAAT [XGTACX_site8668] — lower, 6.98
- AAATAATATGTAATCAAATTCACCAAACGAAAAAAA [TGCATGCA_negctrl_site33] — higher, 7
- TACATATAAAAGTACACACACACACCCATATATATA [CACACA_site941] — higher, 7.65
- TAAAATAAATTGTGCACACATATTTATAAATATGAA [CACACA_site2331] — higher, 9.66
- ATGGACTTTTATAGTTGTACATACTATGAGAACTTT [XGTACX_site2800] — lower, 6.95
- TATTGCCCGAAACACACACACATATATATATATATA [CACACA_site2491] — higher, 9.8
- GTTTATCACAGCCACGCACACATAATATATGTATAT [CACACA_site3669] — higher, 7.15
- TATAATATTTACGACAGTACATATATATATATGTAT [XGTACX_site8332] — higher, 7.33
- AAATAATTTGTTGACACACACACACCCATACATATA [CACACA_site2285] — higher, 7.12
- TAACTCTATTTTTTTGCATGCTGAAGCTATGAGTTT [TGCATGCA_site821] — lower, 6.72
- TGACATAATGTGTGTAGTACATATATCGTTATTTGA [XGTACX_site5152] — lower, 6.86
- TGAATAAATATAAAAGGTACACATATAAATATATAT [XGTACX_site6349] — higher, 7.11
- TATGTAGGTAAAAATTGTACTTTTTTTTTAATATTT [XGTACX_site2303] — lower, 6.83
- TATATATTTCATAATACACACGAAAAAAAAAAAAAA [CACACA_site8972] — lower, 6.96
- ATAATATTATGTGTGAATATATCTTTAAAAAGGATA [GTGCAC_negctrl_site15] — lower, 6.86
- ATAAAAATAAAATAAGGTACAGACGAAAAAATTGAA [XGTACX_site5097] — higher, 7.3

— the supplement of paper PMC11417369
